The values below come from ChEMBL document CHEMBL4888484, “Replenishing the malaria drug discovery pipeline: Screening and hit evaluation of the MMV Hit Generation Library 1 (HGL1) against asexual blood stage Plasmodium falciparum ,using a nano luciferase reporter read-out” (2022).

About 540 (0.36%) of roughly 150,000 compounds showed an effect of 50% or more. The list shows a part of the results.

For this assay, the system named is Plasmodium falciparum. The experiment in a line: Primary screen in NF54 nanoGlo assay, in single point, at 2uM, 72h; a lower Z score goes with more inhibition. The following applies: timepoint 72 hour. Type of assay: functional, Erythrocyte.
Regarding `Cc1nnc(CN2C[C@@H]3CCC[C@@]3(C(=O)OC(C)(C)C)C2)s1`, the “% Inhibition” value is listed as -10% and the Z score was determined as 1.44.
For `COc1ccccc1N(C)CCCN1C(=O)NC(C)(C)C1=O`, the “% Inhibition” value is -2% and the Z score is recorded as 0.31.
Taken in the same sequence, the figures for `O=C(NCC[C@@H]1C[C@@H]2C=C[C@H]1C2)c1cc2n(n1)CCNC2` were -7% and 1.03.
Regarding `Cc1cc2c(NC(=O)CCc3cc4n(n3)CCNC4)cccc2nn1`, the “% Inhibition” value is recorded as -2% and the Z score came to 0.29.
Taken in the same sequence, the figures for `Clc1ccc(CN2CCc3nc(N4CCOCC4)ncc3C2)cc1` were -8% and 1.52.
Taken in the same sequence, the figures for `Cn1ncc2c(N)nc(N3CCC(C)(C)C3)nc21` were -9% and 1.22.
With `Cc1nn(C)c(C)c1[C@H]1OCC[C@@H]1NC(=O)C1CC1c1cccc2ccccc12` (stereo partly specified), the “% Inhibition” value is reported as -12% and the Z score amounted to 1.43.
Taken in the same sequence, the figures for `Cc1nnc(C(=O)N[C@H]2CCC(=O)NC2(C)C)s1` were -2% and 0.47.
Taken in the same sequence, the figures for `Cc1nn(C)c(C)c1CNc1cnn(CC(F)(F)F)c1` were 0% and -0.03.
On to `CC(C)(C)OC(=O)N[C@@H]1CCC[C@H]1CC(=O)Nc1ccc(N2CCC(O)CC2)c(C#N)c1`, for which the “% Inhibition” value is 1% and the Z score was -0.15.
Taken in the same sequence, the figures for `c1coc(-c2nc(C3CCOCC3)nn2-c2cnc3ccccc3n2)c1` were 8% and -1.03.
Taken in the same sequence, the figures for `Cc1ccc(NC(=O)Cn2ccn3nc4c(c3c2=O)CCCCC4)c(C)c1` were -4% and 0.57.
Taken in the same sequence, the figures for `CCOc1ccccc1CNC(=O)c1cnc(-c2cccnc2)nc1` were -27% and 3.83.
Take `Cn1nc(-c2c(-c3ccccc3)ncn2[C@H]2CCNC2)c2c(Cl)cccc21`: the “% Inhibition” value is reported as -14% and the Z score is 2.59.
Taken in the same sequence, the figures for `Cc1ccc(C)c([C@@H]2CCCN2C(=O)c2cnnn2C)c1` were -5% and 1.
As to `Cn1cc(S(=O)(=O)N2CCCCCC2)cc1C(=O)Nc1cccc(F)c1`, the “% Inhibition” value was -14% and the Z score is reported as 2.01.
Taken in the same sequence, the figures for `CC(C)(C)NC(=O)CC1(NC(=O)OC(C)(C)C)CCC1` were -10% and 2.01.
Taken in the same sequence, the figures for `COc1cc(C)cc(OC)c1-c1cc2nc[nH]c2nc1C` were -11% and 1.3.
Taken in the same sequence, the figures for `NS(=O)(=O)c1ccccc1CNC(=O)N1CCCC2(CCCC2)CC1` were -9% and 1.58.
In the case of `O=C(Nc1cc(Oc2ccc(F)cc2)cc(Oc2ccc(F)cc2)c1)c1nn2c(C(F)(F)F)cc(-c3cccs3)nc2c1Cl`, the “% Inhibition” value is on record as -6% and the Z score is on record as 0.99.
Taken in the same sequence, the figures for `CCOc1ccc(-c2cc3c(N4CCC(C(=O)NCc5ccc6c(c5)OCO6)CC4)nccn3n2)cc1` were 9% and -0.92.
Taken in the same sequence, the figures for `CC1CCCCC1NC(=O)CON=C(N)Cc1ccccc1Cl` (stereo unspecified) were 8% and -1.04.
Taken in the same sequence, the figures for `CCN1CCC([C@H]2c3nccn3CCCN2Cc2ccccc2)CC1` were 3% and -0.49.
Take `CN(Cc1cscn1)C(=O)Nc1nc2ccccc2s1`: the “% Inhibition” value is listed as -2% and the Z score is reported as 0.38.
Taken in the same sequence, the figures for `CCC(CC)S(=O)(=O)NC(=O)c1ccccc1` were -12% and 1.24.
Turning to `COc1ccc(C(C)(C)C)cc1S(=O)(=O)NCC(C)C`, the “% Inhibition” value came out at 6% and the Z score was -0.76.
Taken in the same sequence, the figures for `Fc1ccc(COc2ncccn2)cc1` were -17% and 2.49.
Taken in the same sequence, the figures for `Cc1nn(C)c(C)c1CN[C@@H]1CCCc2c(F)cc(F)cc21` were -5% and 0.6.
Consider `O=C(Cn1c(=O)c2nncn2c2ncccc21)NCc1ccc(Cl)cc1`, for which the “% Inhibition” value was -11% and the Z score is recorded as 1.82.
Consider `Cc1ccc(C(=O)NC(c2ccccn2)[C@H]2C[C@H](O)C2)cc1O` (stereo partly specified), for which the “% Inhibition” value is recorded as -13% and the Z score worked out at 2.2.
Taken in the same sequence, the figures for `CC(C)CCOC(=O)[C@H](C)N1C(=O)CCC1=O` were 4% and -0.33.
Taken in the same sequence, the figures for `CC(C)[C@@H](N)C(=O)NCCc1ccc(F)cc1` were -2% and 0.35.
For `O=C(NCc1nc2cc(Br)c[nH]c-2n1)c1ccccc1`, the “% Inhibition” value was -8% and the Z score is 1.07.
On to `C[C@]1(c2cccnc2)NC(=O)N(Cc2ccc(F)c(Cl)c2)C1=O`, for which the “% Inhibition” value is recorded as -2% and the Z score came to 0.31.
Taken in the same sequence, the figures for `CCN1C[C@H](NS(=O)(=O)Cc2ccccc2)[C@@H](OC)C1` were -17% and 2.01.
Taken in the same sequence, the figures for `Fc1ccccc1CNc1nnc2n1CCCCC2` were -31% and 3.67.
For `O=C(c1ccc2ncsc2c1)N1CCC[C@H]1c1ccc2c(c1)OCCCO2`, the “% Inhibition” value was 14% and the Z score was -1.73.
Taken in the same sequence, the figures for `COc1cccc(-n2c(=O)c(C(=O)NCc3ccccc3Cl)c(O)c3cccnc32)c1` were -10% and 1.34.
Take `CCn1cc(-c2ccc(Cl)cc2)cc1C(=O)NCc1ccccn1`: the “% Inhibition” value is listed as -2% and the Z score is 0.24.
For `CCOc1cc(CNc2ccc(Oc3ccccc3)cc2)cc(Cl)c1OCc1ccccc1Cl`, the “% Inhibition” value is reported as 30% and the Z score is -3.34.
Take `Cc1nc([C@H](C)N(C)C(=O)c2n[nH]c3c2COCC3)c(C)s1`: the “% Inhibition” value was -22% and the Z score is reported as 2.39.
`CC(=O)N(CCc1nc(-c2ccc(C)s2)cs1)C(C)C`: the “% Inhibition” value is given as -3% and the Z score came to 0.47.
Taken in the same sequence, the figures for `C[C@H](NC(=O)CCc1ccncc1)c1ccc(-c2cccnc2)cc1` were 1% and -0.16.
